Measurements as given in patent US20210253657A1 (IL DONG PHARMACEUTICAL, published 2021).

Biological target: T1, human NRP1 extracellular domain (ECD) (human, UniProt O14786 22-856)
T1 construct: extracellular domain; Immobilized on a CM5 chip for SPR; also called NRP1 ECD; human NRP1 ECDs
T1 sequence (looked up): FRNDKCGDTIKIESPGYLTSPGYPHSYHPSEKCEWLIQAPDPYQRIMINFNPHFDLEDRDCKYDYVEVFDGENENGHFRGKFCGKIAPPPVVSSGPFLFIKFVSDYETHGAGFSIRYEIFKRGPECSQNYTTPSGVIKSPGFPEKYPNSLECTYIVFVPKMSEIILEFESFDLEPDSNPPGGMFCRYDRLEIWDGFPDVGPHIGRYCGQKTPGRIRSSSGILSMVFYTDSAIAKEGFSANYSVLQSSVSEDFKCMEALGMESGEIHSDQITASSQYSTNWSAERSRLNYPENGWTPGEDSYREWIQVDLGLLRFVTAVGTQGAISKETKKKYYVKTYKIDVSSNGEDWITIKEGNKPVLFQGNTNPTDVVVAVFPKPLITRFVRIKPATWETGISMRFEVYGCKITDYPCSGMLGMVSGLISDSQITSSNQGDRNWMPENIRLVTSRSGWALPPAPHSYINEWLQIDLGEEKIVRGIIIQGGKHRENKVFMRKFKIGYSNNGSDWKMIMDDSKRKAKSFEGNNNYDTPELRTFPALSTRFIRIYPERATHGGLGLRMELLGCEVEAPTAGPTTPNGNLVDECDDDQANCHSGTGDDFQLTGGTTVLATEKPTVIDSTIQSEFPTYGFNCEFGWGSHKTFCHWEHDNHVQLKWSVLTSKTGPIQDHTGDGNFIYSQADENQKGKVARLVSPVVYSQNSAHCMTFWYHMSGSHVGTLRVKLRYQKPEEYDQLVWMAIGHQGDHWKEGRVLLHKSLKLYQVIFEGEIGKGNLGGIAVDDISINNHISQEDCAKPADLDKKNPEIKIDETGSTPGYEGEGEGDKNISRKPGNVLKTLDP
Experiment: SPR (Biacore T200), human NRP1 ECD on a CM5 chip, 1:1 Langmuir model

Kd: 15.7 nM
B1: Avastin-TPP11 fusion protein (antibody, human IgG1, kappa)
heavy: EVQLVESGGGLVQPGGSLRLSCAASGYTFTNYGMNWVRQAPGKGLEWVGWINTYTGEPTYAADFKRRFTFSLDTSKSTAYLQMNSLRAEDTAVYYCAKYPHYYGSSHWYFDVWGQGTLVTVSS[skipping human IgG1 constant region]GGGGSGGGGSGGGGSHTPGNSKPTRTPRR
light: DIQMTQSPSSLSASVGDRVTITCSASQDISNYLNWYQQKPGKAPKVLIYFTSSLHSGVPSRFSGSGSGTDFTLTISSLQPEDFATYYCQQYSTVPWTFGQGTKVEIKRTVAAPSVFIFPPSDEQLKSGTASVVCLLNNFYPREAKVQWKVDNALQSGNSQESVTEQDSKDSTYSLSSTLTLSKADYEKHKVYACEVTHQGLSSPVTKSFNRGEC
